Laboratory results as given in PubChem BioAssay AID686979 (National Center for Advancing Translational Sciences (NCATS), 2013).
Screen size: about 420,000 compounds; about 50,000 (12%) were called active. This list was built around the results that the source calls inconclusive (neither active nor inactive); the mix of calls is not that of the screen. Calls come from the whole dose curve; as a rule, active = well fitted inhibition curve with a large enough effect; inconclusive = small, poorly fitted or top-dose-only effect; inactive = flat fitted curve, though single readings scatter. Potencies of inconclusive entries are left out as doubtful fits.

Test: qHTS for Inhibitors of human tyrosyl-DNA phosphodiesterase 1 (TDP1): qHTS in cells in presence of CPT; note: nearly all actives have a fitted effect of over 55% in size
Conditions: chicken DT40 Tdp1-/-;hTDP1 cells + 20 nM CPT, ATP luminescence, 48 h; activity change, negative = growth inhibition: at 46.2 µM (top of the series)
Outline: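 Cell growth measured by CellTiter-Glo luminescence after a minimum 48 h, 37 C compound exposure with 20 nM CPT in Tdp1-knockout DT40 cells stably expressing hTDP1, seeded 400/well; qHTS titration format.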
% is set by controls: 0 for no effect and ±100 for the full control effect; potency is the fitted concentration of half-maximal effect; tags give direction and shape of the fitted curve.

Row | SMILES | Potency | activity change, negative = growth inhibition
1 | Cc1cccn2c(=S)[nH]nc12 | inactive | 
2 | CN1CCCC(CN(C)C(=O)c2cnn(-c3nccc(-c4ccccc4C(F)(F)F)n3)c2C2CC2)C1 (stereo not given) |  | inactive: 16.3% [at 9.04 µM]
3 | O=[N+]([O-])c1cc(CN2CCN(c3cccc(C(F)(F)F)c3)CC2)c2cccnc2c1O | active: 0.92 µM | 
4 | Cc1ccc(C)n1-c1ccc(C(=O)NCc2ccncc2)cc1 | inconclusive [inhibitor, single point] | 
5 | CC1CCN(CCCOc2ccc(Br)cc2Cl)CC1 | inactive | 
6 | O=S(=O)(c1cc(C(F)(F)F)ccc1Cl)N1CCN(c2ncnc3ccccc23)CC1 | active: 2.06 µM | 
7 | Cc1c(NC(=O)c2ccc(Cl)cc2)cc(C(C)C)c(O)c1S(=O)(=O)c1ccccc1 | inconclusive [inhibitor, single point] | 
8 | CC(=O)c1ccc(Nc2nc(C(N)Cc3ccc(N)cc3)cs2)cc1 (stereo not given) | inconclusive [inhibitor, single point] | 
9 | CCOC(=O)c1ccc(NC(=O)COc2ccccc2CNCCO)cc1 | inconclusive [inhibitor, single point] | 
10 | O=C(NCC1CCN(Cc2ccccc2Cl)CC1)c1cc2ccc3cccnc3c2[nH]1 | inconclusive [inhibitor, single point] | 
11 | COc1ccc(Cl)cc1NC(=O)CN(C)C(=O)c1ccc(N2CCCCC2)c([N+](=O)[O-])c1 | active: 9.2 µM | 
12 | COc1ccccc1CNC(=O)CCc1c(C)nn(-c2ccc(N3CCCC3)nn2)c1C | inconclusive [inhibitor, single point] | 
13 | CCCCOc1ccc(-c2n[nH]c(=S)n2Cc2ccccc2)cc1 | inconclusive [inhibitor, single point] | 
14 | Cc1cc(=O)n(Cc2ccccc2Cl)c2c1c(C)nn2-c1ccccc1 | inconclusive [inhibitor, partial curve] | 
15 | COc1ccccc1CNC(=O)CCS(=O)(=O)c1ccc2c(c1)CC(C)N2C(=O)C1CC1 (stereo not given) | active: 20.6 µM | 
16 | Nc1ccc2cccc(O)c2c1 | inconclusive [inhibitor, partial curve] | 
17 | O=[N+]([O-])c1ccc(COc2ccc(CN3CCOCC3)cc2)cc1 | inconclusive [inhibitor, single point] | 
18 | CN(CC(=O)Nc1ccc(F)c(F)c1F)C(=O)CN1C(=O)C2CCCCC2C1=O (stereo not given) | inactive | 
19 | S=C(NCc1ccccc1)Nc1ccc(Cl)cc1 | inactive | 
20 | Cc1cc2nc(C3CCN(CC4COc5ccccc5O4)CC3)[nH]c2cc1C (stereo not given) | active: 7.31 µM | 
21 | Cc1ccc(CSc2nc3ccsc3c(=O)n2CCC(C)C)cc1 | inconclusive [inhibitor, single point] | 
22 | CC(C)CCN1CCN(Cc2ccc(C#CCCO)cc2)CC1CCO (stereo not given) | inactive | 
23 | Cc1c(/C=N/NC(N)=O)c2ccccn2c1C(=O)c1ccncc1 | inconclusive [inhibitor, single point] | 
24 | COc1ccc(CN(C)C2CCCCC2)cc1 | inconclusive [inhibitor, single point] | 

Row | SMILES | Potency | activity change, negative = growth inhibition
25 | CCC1(CC)C(=O)C2=C3C1[C@H](C(=O)OC)C=C(C(=O)OC)C[C@H]3[C@H]1C(=O)N(Cc3ccccc3)C(=O)[C@H]1[C@H]2C (stereo not given in full) | active: 4.61 µM | 
26 | Cc1cc(Br)cc(Br)c1OCC(=O)NNC(=O)Nc1ccccc1 | inactive | 
27 | Cc1cc(C)c2nc(-c3ccccn3)cc(C(=O)NCc3ccco3)c2c1 | inconclusive [inhibitor, single point] | 
28 | Cc1ccc(-c2nc(CSCC(=O)N3CCN(c4ccccn4)CC3)c(C)o2)cc1 | active: 18.4 µM | 
29 | C=CC[n+]1c(-c2ccc(Cl)cc2Cl)csc1Nc1c(C)n(C)n(-c2ccccc2)c1=O | active: 5.17 µM | 
30 | COC(=O)c1cc(CNC(=O)c2sccc2-c2ccccc2)ccc1OC | inconclusive [inhibitor, single point] | 
31 | O=C(Nc1nnc(SCCN2CCOCC2)s1)C1CC(=O)N(c2ccc(F)cc2)C1 (stereo not given) | inactive | 
32 | COc1ccc(C)cc1NS(=O)(=O)c1ccc(Cl)nc1 | inactive | 
33 | CCn1c2c(c(=O)n3ncc(C(=O)Nc4ccc(F)cc4Cl)c13)CN(Cc1ccc(OC)cc1)CC2 | inconclusive [inhibitor, single point] | 
34 | Cn1cc(C(=O)c2ccc(Cl)cc2Cl)cc1C(=O)N/N=C(\N)COc1ccc(F)cc1 | inconclusive [inhibitor, single point] | 
35 | Cc1ccc(S(=O)(=O)N2CCOCC2)cc1NCC(=O)Nc1ccc(OC(F)(F)F)cc1 | inconclusive [inhibitor, single point] | 
36 | Cc1cc(C)nc(-n2nc(C)cc2NC(=O)c2cc3ccccc3oc2=O)n1 | inconclusive [inhibitor, single point] | 
37 | CCOc1ccc(NC(=O)c2oc(=O)c3ccccc3c2-c2ccc(C)cc2)cc1 | inconclusive [inhibitor, single point] | 
38 | CCN1CCN(C(=O)c2ccc3c(c2)N(Cc2ccc(F)cc2)C(=O)c2ccccc2S3(=O)=O)CC1 | inconclusive [inhibitor, single point] | 
39 | CCn1c(SCC(=O)Nc2ccc(NC(=O)c3ccco3)c(OC)c2)nc2ccccc2c1=O | inactive | 
40 | COc1cccc(NC(=O)c2sc3nc(C)c(C(=O)Nc4ccc(C)cc4C)c(-c4cccs4)c3c2N)c1 | inconclusive [inhibitor, single point] | 
41 | O=C(CN1CCN(S(=O)(=O)c2ccc(Cl)cc2)CC1)NCC1(N2CCOCC2)CCCCC1 | inconclusive [inhibitor, single point] | 
42 | COc1ccccc1NS(=O)(=O)c1cccc(C(=O)NC2CCN(Cc3ccccc3)CC2)c1 | inconclusive [inhibitor, single point] | 
43 | COc1ccc(S(=O)(=O)NCC(=O)Nc2ccc(F)cc2)cc1 | inactive | 
44 | COc1cccc(-c2nc(NC(C)(C)C)c3ccccc3n2)c1O | inconclusive [inhibitor, single point] | 
45 | CN(C(=O)c1cccc(NC(=O)Cc2ccc(NC(=O)C3CCN(C(=O)C4CC4)CC3)cc2)c1)C1CC1 | inactive | 
46 | CCOc1ccc(-n2c(Cc3ccccc3)nnc2SCc2nc(-c3cccs3)no2)cc1 | inconclusive [inhibitor, single point] | 
47 | NC(COCc1ccccc1)c1csc(Nc2ccc(C(=O)c3ccccc3)cc2)n1 (stereo not given) | active: 14.6 µM | 
48 | O=C(O)CCn1c(SCCOc2ccccc2F)nc2ccccc21 | inactive | 

Row | SMILES | Potency | activity change, negative = growth inhibition
49 | COc1cccc(CN(CC2CCCO2)C(=O)c2cc3ccccc3oc2=O)c1 (stereo not given) | inconclusive [inhibitor, single point] | 
50 | CCNc1nc(SC(C)C(=O)Nc2ccccc2)nc(N2CCOCC2)n1 (stereo not given) | inconclusive [inhibitor, single point] | 
51 | Cc1ccc(-c2nc(-c3cc4cccc(OCc5cccc(F)c5)c4oc3=O)no2)cc1 | active: 14.6 µM | 
52 | CCOC(=O)C1=C(C)OC(=Cc2ccccc2)C1=O | inactive | 
53 | COc1ccccc1S(=O)Cc1ccc(C(=O)NC2CCCC2)o1 (stereo not given) | inactive | 
54 | CC1CCN(C(=O)CSc2nc3c(c(=O)n(C)c(=O)n3C)n2C)CC1 | inactive | 
55 | O=S(=O)(Nc1cc(C(F)(F)F)ccc1N1CCOCC1)c1ccccc1 | inactive | 
56 | COCCN(CCOC)C(=O)c1cc2sc3ccccc3c2s1 | inconclusive [inhibitor, single point] | 
57 | COc1ccc(N(C(=O)Cn2nnc3ccccc32)C2(C(=O)NC3CCCC3)CCCCC2)cc1 | inconclusive [inhibitor, partial curve, poor fit] | 
58 | COc1cc2c(C)nc3onc(-c4ccccc4)c3c2cc1OC | inconclusive [inhibitor, single point] | 
59 | COc1ccc(CN2CC(=O)N(c3cc(Cl)ccc3C)C2=S)cc1OC | inconclusive [inhibitor, single point] | 
60 | COc1ccc(OC)c(S(=O)(=O)Nc2cccc(-c3ccc4nncn4n3)c2)c1 | inconclusive [inhibitor, single point] | 
61 | CCC(CC)c1nnc(NC(=O)CCCN2C(=O)c3ccccc3C2=O)s1 | inactive | 
62 | CC1(C(=O)Nc2cccc3ncccc23)CCN1C(=O)CCc1ccccc1 (stereo not given) | inconclusive [inhibitor, single point] | 
63 | Cc1[nH]c2ccccc2c1C(=O)CSC(=S)N1CCN(C)CC1 | inconclusive [inhibitor, single point] | 
64 | CC(C)(C)c1ccc(C(=O)NNC(=O)CCC(=O)Nc2ccccc2)cc1 | inactive | 
65 | COc1cc(-c2nc(S(=O)(=O)c3ccc(Cl)cc3)c(N3CCOCC3)o2)cc(OC)c1OC | inconclusive [inhibitor, single point] | 
66 | CC(C)C1C(=O)N(Cc2cn(CCC3OCCCO3)nn2)CCS(=O)(=O)N1Cc1ccc(-c2ccc(Cl)cc2)cc1 (stereo not given) | inconclusive [inhibitor, partial curve] | 
67 | CCCc1cc(=O)oc2cc(C)cc(OCC(=O)Nc3ccccn3)c12 | inconclusive [inhibitor, single point] | 
68 | Cc1cc(C)cc(NC(=O)C2CCN(S(=O)(=O)c3c(C)noc3/C=C/c3ccco3)CC2)c1 | active: 23.1 µM | 
69 | CC(C)C[C@]1(c2ccccc2)ON(c2ccccc2C(F)(F)F)C1=O | inconclusive [inhibitor, single point] | 
70 | C/C(=N\NC(=S)Nc1cccc(C)c1)c1cc2ccccc2o1 | inconclusive [inhibitor, single point] | 
